# Laboratory results from PubChem BioAssay AID757 (NMMLSC, 2007).
# Out of some 190,000 compounds screened, about 520 (0.27%) were called active. Inconclusive results, whose numbers are uncertain, are shown with a selection of clear calls.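 The calls were made as follows: active = GTP binding activity at least 20 points away from the 100% control level, either lower or higher; inconclusive = compound flagged as likely green fluorescent, judged across all proteins; inactive = the rest.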
# Biological target: Ras-related C3 botulinum toxin substrate 1 (Homo sapiens) (UniProt P63000)
# Experiment: wildtype Rac1 GTP binding modulators, primary screen, biochemical, GST-Rac1 beads, flow cytometry, multiplex (AID 757)
# Details: fluorescent GTP binding, at 10 µM, actives lie on both sides, 0 = cold GTP competed, 100 = untreated
row,Structure (SMILES),GTP binding activity (% of control)
1,NC(=O)N=Nc1c(O)[nH]c2c(Br)cc(Br)cc12,active: 69%
2,Fc1ccc(-n2nnc(-c3cnc4ccccc4c3)n2)cc1,inactive: 98%
3,CSc1nc(C)cc(SCC(=O)N/N=C/c2ccccc2)n1,inconclusive: 83%
4,COc1ccc(C)cc1N(CC(=O)N1CCc2ccccc2C1)S(C)(=O)=O,inconclusive: 101%
5,O=C(CSCc1ccc(Cl)cc1)Nc1ccc2c(c1)OCCO2,inactive: 95%
6,COc1ccc(C2=Nn3c(nnc3-c3ccco3)SC2)cc1,inconclusive: 85%
7,CCOc1cc(/C=C(/C#N)c2nc3ccccc3[nH]2)ccc1OCc1ccc(C(=O)O)o1,inactive: 85%
8,CCc1nc(N)c(C#N)c(-c2ccc(F)cc2)c1C,inconclusive: 101%
9,CSc1nc2nc3c(cc2c(=O)n1-c1ccccc1)COC(C)(C)C3,inconclusive: 93%
10,Cc1nnc(SCc2ccccc2CSc2nnc(C)s2)s1,inactive: 98%
11,CCOc1ccc(C(=O)N/N=C(/C)C2C(=O)c3ccccc3C2=O)cc1,inconclusive: 92%
12,O=C1c2oc3ccc(Br)cc3c(=O)c2C(c2cccc(F)c2)N1CCO (stereo not given),active: 123% [activator]
13,CC(C)(C)N(NC(=O)Nc1ccc(Cl)c(Cl)c1)C(=O)c1ccccc1,inconclusive: 106%
14,COc1cc(-c2c(C#N)c(=O)[nH]c3c2c(C)nn3-c2ccccc2)ccc1O,inconclusive: 86%
15,CC(C)(C)NC(=O)COc1ccc(CNCc2ccccn2)cc1,inconclusive: 93%
16,COc1ccccc1C(=O)Oc1ccc(N2C(=O)CCC2=O)cc1,inconclusive: 97%
17,COc1ccc(/C=C/C(=O)OCC(=O)NC(=O)NC(C)(C)C)cc1,inactive: 95%
18,COc1ccc(C2=Nc3ccc(Br)cc3C(c3ccccc3)N2CC(=O)NN)cc1 (stereo not given),inconclusive: 101%
19,O=c1[nH]c(N/N=C/c2ccc(O)cc2)nc2ccccc12,active: 77%
20,CSc1nc2c(c(-c3ccc(O)cc3)c1C#N)CCC2,inconclusive: 85%

row,Structure (SMILES),GTP binding activity (% of control)
1,COc1ccc(NC(=O)Cc2c(SC)c3ccccc3n2Cc2ccccc2)cc1,inconclusive: 109%
2,CCOC(=O)N1CCC(NC(=O)c2cc(C(=O)Nc3cccc(OC)c3)ccc2CO)CC1,inconclusive: 102%
3,Cc1cccc(NC(=O)CN2C(=O)N/C(=C/c3ccc(C)s3)C2=O)c1,inconclusive: 106%
4,CC1CCC2C(=O)N(c3ccc(NC4CCN(Cc5ccccc5)CC4)c([N+](=O)[O-])c3)C(=O)C2C1 (stereo not given),inconclusive: 92%
5,C=C1CSc2nc(=O)c3c(C)c(C)sc3n21,inconclusive: 90%
6,O=C(CCN1CCc2ccccc2C(c2ccccc2)C1)c1ccc2c(c1)OCCO2 (stereo not given),inconclusive: 98%
7,CN1C(=O)/C(=C2\SC(N)=NC2=O)c2ccccc21,inconclusive: 85%
8,COC(=O)c1ccccc1NC(=O)CN(Cc1ccccc1)S(C)(=O)=O,inconclusive: 104%
9,Cc1ccc(C(=O)CC2(O)C(=O)N(C)c3ccccc32)s1 (stereo not given),inactive: 97%
10,CCOC(=O)C1(CC2CCCCO2)CCN(Cc2cc3ccccc3[nH]2)CC1 (stereo not given),inactive: 105%
11,S=c1nc2ccccc2c2nc(-c3ccccc3)[nH]n12,inconclusive: 95%
12,Cc1cc(C)c(C(=O)Cn2cnc3cc([N+](=O)[O-])ccc3c2=O)cc1C,inconclusive: 77%
13,O=C(Nc1ccc(C(=O)O)cc1)/C(=C\c1ccco1)NC(=O)c1ccccc1,inconclusive: 98%
14,COc1ccccc1N1CCN(C(=O)c2ccc(C(C)(C)C)cc2)CC1,inconclusive: 109%
15,COc1ccc(OC2C(=O)N(Cc3ccc4c(c3)OCO4)C2c2sccc2C)cc1 (stereo not given),inconclusive: 102%
16,COc1ccc(N2C(=O)CN=C2Nc2nc(C)cc(C)n2)cc1OC,inconclusive: 104%
17,O=C(CCn1cnc2ccccc2c1=O)Nc1nc(-c2ccc(Br)cc2)cs1,inactive: 104%
18,NC(=S)n1[nH]c(-c2ccc([N+](=O)[O-])cc2)c(N=Nc2cccc([N+](=O)[O-])c2)c1=O,inconclusive: 92%
19,CC(=O)N1N=C(c2ccc3nccnc3c2)CC1c1ccccc1 (stereo not given),inconclusive: 105%
20,CCCN=C1CC(C)(C)CC(=O)/C1=C(/O)CCCN1C(=O)c2ccccc2C1=O,inconclusive: 99%

row,Structure (SMILES),GTP binding activity (% of control)
1,Cc1ccnc(NC(=S)NC(=O)c2cccs2)c1,inactive: 100%
2,CCOC(=O)N1CCN(C(=O)Cn2c(=O)sc3ccccc32)CC1,inconclusive: 108%
3,COCCNC(=O)c1ccc(C(=O)C(=O)c2ccccc2)cc1,inconclusive: 104%
4,O=C(Nc1cccnc1N1CCOCC1)c1ccco1,inconclusive: 100%
5,O=[N+]([O-])/C=C\c1ccc(N2CCCC2)c(F)c1,inactive: 96%
6,Cc1nc2nc(SCC(=O)N3CCOCC3)nn2c(C)c1Cc1ccccc1,inconclusive: 106%
7,CC1CCCN(c2nc3nonc3nc2N2CCCC(C)C2)C1 (stereo not given),inactive: 107%
8,O=C(CNC(=O)Cc1ccccc1)N=Nc1c(O)n(Cc2ccc3c(c2)OCO3)c2ccccc12,active: 78%
9,O=C(c1ccccc1)c1cccn1CC(=O)N1CCCCCC1,inconclusive: 103%
10,Nn1c(Cc2cccc3ccccc23)n[nH]c1=S,inconclusive: 103%
11,CSc1ccccc1C(=O)Nc1nccs1,inconclusive: 104%
12,Cc1cc(C(=O)OCC(=O)Nc2ccc(F)cc2F)c(C)o1,inconclusive: 104%
13,Oc1c(C=Nc2ccccc2)sc(=S)n1Cc1ccccc1,inconclusive: 117%
14,CCC(=O)Nc1ccc2c(c1)ncn2-c1ccccc1OC,inconclusive: 105%
15,O=C(N/N=C/c1cc2c3c(c1O)CCCN3CCC2)c1ccccc1O,inconclusive: 101%
16,COc1cccc(/C=N/Nc2ccc(C(=O)O)cc2)c1O,inactive: 97%
17,Cc1c2ccccc2nc2c(F)c(NCCO)c(F)c(F)c12,inconclusive: 101%
18,COc1ccc(-c2nc3ncccn3c2Br)cc1,inconclusive: 95%
19,COc1ccc(CCC(C)Nc2ccccc2F)cc1 (stereo not given),inconclusive: 107%
20,Cc1cc(NC(=O)C2CC2)n(-c2nc3ccccc3s2)n1,inconclusive: 90%
